According to PubChem BioAssay AID686978 (National Center for Advancing Translational Sciences (NCATS), 2013):
“And” between values parts separate entries of the source, which are not always exact repeats. Equal entries are not always repeated. The whole screen tested about 420,000 compounds, of which about 64,000 (15%) were called active. Inconclusive results, whose numbers are uncertain, are shown with a selection of clear calls. Calls come from the whole dose curve; as a rule, active = well fitted inhibition curve with a large enough effect; inconclusive = small, poorly fitted or top-dose-only effect; inactive = flat fitted curve, though single readings scatter. No potency is given beside an inconclusive call; the fits are too rough.

assay: qHTS for Inhibitors of human tyrosyl-DNA phosphodiesterase 1 (TDP1): qHTS in cells in absence of CPT; conditions: DT40 Tdp1-/- hTDP1 cells, no CPT, ATP luminescence, 48 h; activity change, negative = growth inhibition: at 46.2 µM (top of the series) unless noted; note: nearly all actives have a fitted effect of over 55% in size
Procedure, shortened: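 Growth kinetics read by CellTiter-Glo luminescence after ≥48 hr at 37 °C. Cells: DT40 Tdp1-/- stably carrying human TDP1, 400 per well, compound exposure in the absence of CPT (DMSO vehicle).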
% is set by controls: 0 for no effect and ±100 for the full control effect; potency is the fitted concentration of half-maximal effect; tags give direction and shape of the fitted curve.

Q: Which Potency does the source give for CCOC(=O)c1c(N)n(Cc2ccco2)c2nc3ccccc3nc12 here?
A: inconclusive [inhibitor, single point]

Q: Which Potency does the source give for CCC(C)NC(=O)c1c(N)n(CCCOC)c2nc3ccccc3nc12 (stereo not given) here?
A: inconclusive [inhibitor, single point]

Q: Which Potency does the source give for c1ccc(N2CCC3(CCNCC3)CC2)nc1 here?
A: inconclusive [inhibitor, partial curve]

Q: With CCc1cc2c(s1)NC(=O)CN=C2c1cccs1 as the molecule, how does the Potency read?
A: inconclusive [inhibitor, single point]

Q: Which Potency does the source give for COc1ccccc1N1CCN(Cc2c[nH]c3ccccc23)CC1 here?
A: active: 5.8 µM

Q: Which “activity change, negative = growth inhibition” value does the source give for Cc1cccc(OCC(=O)N2CCN(Cc3ccncc3)CC2)c1 here?
A: inactive: -7.49%

Q: For CCOP(=O)(OCC)c1nc(-c2ccc(C)cc2)oc1NCc1ccccc1, which Potency is on record?
A: inconclusive [inhibitor, single point]

Q: With c1ccc2c(CN3CCCCCCC3)c[nH]c2c1 as the molecule, how does the Potency read?
A: active: 1.46 µM

Q: Which Potency does the source give for CN1CCC[C@H]1c1cccnc1 here?
A: inconclusive [inhibitor, single point]

Q: Which Potency does the source give for COc1cccc(C(c2nnnn2Cc2ccccc2)N2CCC(n3c(=O)[nH]c4ccccc43)CC2)c1OC (stereo not given) here?
A: active: 3.26 µM

Q: With Cc1cc(C)cc(OCCOc2cccc(C=C3C(=O)NC(=O)NC3=O)c2)c1 as the molecule, how does the Potency read?
A: inconclusive [inhibitor, single point]

Q: For CN1C(=O)NC(=O)[C@]2(Cc3ccccc3N3CCN(c4ccccc4)CC32)C1=O (stereo not given in full), which Potency is on record?
A: inconclusive [inhibitor, single point]

Q: Which “activity change, negative = growth inhibition” value does the source give for NC[C@H](CP(=O)(O)O)c1ccc(Cl)cc1 here?
A: inactive: 1.06%

Q: With COC(=O)C1=C(c2cccc(OC)c2OC)C[C@@H]2CC[C@H]1N2C(=O)NC(C)C as the molecule, how does the “activity change, negative = growth inhibition” value read?
A: inactive: -14.3%

Q: For O=C(COC(=O)c1cccc(NC(=O)c2ccc(Br)cc2)c1)c1ccc(Br)cc1, which Potency is on record?
A: inconclusive [inhibitor, single point]

Q: With CCOP(=O)(OCC)C(O)c1ccc(OC)cc1 (stereo not given) as the molecule, how does the “activity change, negative = growth inhibition” value read?
A: inactive: 4.97%

Q: Which Potency does the source give for O=C1c2cccc3cc([N+](=O)[O-])cc(c23)C(=O)N1c1ccccc1O here?
A: active: 16.4 µM

Q: With CCCCCCCCCCCCCCCCOC[C@@H](O)COP(=O)([O-])OCC[N+](C)(C)C as the molecule, how does the activity change, negative = growth inhibition read?
A: inactive: 0.229% [at 4.12 µM]

Q: Which Potency does the source give for CN(C)c1ccc(N=Cc2c(O)n(CCC3=CCCCC3)c(=O)[nH]c2=O)cc1 here?
A: inconclusive [inhibitor, single point]

Q: For CN(C)C=C1C(=O)N(C2CCCCC2)C(=O)N(C2CCCCC2)C1=O, which Potency is on record?
A: inconclusive [inhibitor, single point]

Q: With O=C(NCC1=C(c2cccc3ccccc23)C[C@@H]2CC[C@H]1N2Cc1ccco1)c1ccc([N+](=O)[O-])cc1 as the molecule, how does the Potency read?
A: active: 18.4 µM

Q: Which Potency does the source give for COc1ccc2c(c1OC)C(=O)OC2C1c2cc3c(cc2CCN1C)OCO3 (stereo not given) here?
A: inactive

Q: Which Potency does the source give for Clc1ccc(COC(Cn2ccnc2)c2ccc(Cl)cc2Cl)cc1 (stereo not given) here?
A: active: 18.8 µM and active: 16.4 µM and active: 20.6 µM

Q: Which Potency does the source give for FC(F)(F)c1ccc2c(c1)nnn2C1CCN(Cc2nnnn2Cc2ccccc2)CC1 here?
A: inconclusive [inhibitor, single point]

Q: For CCCCCCCCCOc1ccc2[nH]cc(CCN)c2c1, which Potency is on record?
A: active: 9.44 µM and active: 8.2 µM

Q: For c1cnc(N2CCC3(CCNCC3)CC2)nc1, which Potency is on record?
A: active: 23.1 µM

Q: For CCOC(=O)c1ccc(N=C(c2ccccc2)c2c(O)n(C)c(=O)n(C)c2=O)cc1, which Potency is on record?
A: active: 7.31 µM

Q: For CCc1cc(=O)[nH]c(SCCCF)n1, which “activity change, negative = growth inhibition” value is on record?
A: inactive: 6.21%

Q: With Cc1ccccc1-n1c(O)c(/C=N/NC(=O)c2ccccc2O)c(=O)[nH]c1=S as the molecule, how does the Potency read?
A: inconclusive [inhibitor, single point]

Q: With C[C@H]1CCCC(=O)CCCCCc2cc(O)cc(O)c2C(=O)O1 as the molecule, how does the Potency read?
A: active: 18.4 µM

Q: Which Potency does the source give for CCN(CC)C(=O)c1ccc(NC(=O)Nc2ccccc2F)cc1 here?
A: active: 9.2 µM

Q: For CN(Cc1cccc(-c2cccnc2)c1)C(=O)Oc1ccc([N+](=O)[O-])cc1, which Potency is on record?
A: inconclusive [inhibitor, single point]

Q: Which Potency does the source give for COc1ccc(-n2c(CN3CCOCC3)nc3ccccc3c2=O)c(OC)c1 here?
A: inconclusive [inhibitor, single point]

Q: For O=C1NC(=O)C2C1C1(Cl)C(Cl)=C(Cl)C2(Cl)C1(Cl)Cl (stereo not given), which “activity change, negative = growth inhibition” value is on record?
A: inactive: -13.6%

Q: Which Potency does the source give for C[C@@H](C1=C(CCN(C)C)Cc2ccccc21)c1ccccn1 here?
A: inconclusive [inhibitor, single point]

Q: Which Potency does the source give for Cc1sc2ncnc(N3CCN(S(=O)(=O)c4ccc(Br)cc4)CC3)c2c1C here?
A: active: 11.6 µM

Q: For COc1ccccc1CCNCc1ccc(OC)c(OC)c1OC, which Potency is on record?
A: active: 11.6 µM

Q: For Cc1cc(C)cc(NC(=O)c2cnc3sc(N4CCCC4)nn3c2=O)c1, which Potency is on record?
A: inconclusive [inhibitor, full curve]

Q: With Cc1ccc(-c2cn3c(=S)[nH]nc3s2)cc1 as the molecule, how does the Potency read?
A: inconclusive [inhibitor, single point]

Q: With O=[N+]([O-])c1ccc(Oc2ccc(N=C=S)cc2)cc1 as the molecule, how does the Potency read?
A: active: 11.9 µM

Q: Which Potency does the source give for CCC(C#N)(CC)P(=S)(c1ccccc1)c1ccccc1 here?
A: inconclusive [inhibitor, single point]

Q: With O=C(c1cc(-c2ccc(Cl)cc2)n(-c2ccc(Cl)cc2Cl)n1)N1CCOCC1 as the molecule, how does the Potency read?
A: inconclusive [inhibitor, partial curve, poor fit]

Q: With CC(C)OP(=O)(OC(C)C)C(Nc1ccccc1)c1ccccc1C(F)(F)F (stereo not given) as the molecule, how does the Potency read?
A: inconclusive [inhibitor, partial curve]

Q: With O=P(Oc1ccccc1)(N1CCOCC1)N1CCOCC1 as the molecule, how does the “activity change, negative = growth inhibition” value read?
A: inactive: 7.24%

Q: With CC(C)c1ccc(N=Cc2c(O)n(C3CC3)c(=S)[nH]c2=O)cc1 as the molecule, how does the Potency read?
A: inconclusive [inhibitor, single point]

Q: Which Potency does the source give for N#Cc1ccc(NC(=O)CN2CCCC2)cc1Cl here?
A: inconclusive [inhibitor, single point]

Q: Which Potency does the source give for Cc1[nH]c2ccccc2c1CN(C)C here?
A: inconclusive [inhibitor, partial curve, poor fit]

Q: For Cc1ccc([C@H]2N[C@]3(CCCN(Cc4ccc(C(F)(F)F)cc4)C3=O)[C@H]3C(=O)N(Cc4ccccc4)C(=O)[C@@H]23)cc1, which Potency is on record?
A: inconclusive [inhibitor, partial curve, poor fit]

Q: Which “activity change, negative = growth inhibition” value does the source give for Cc1ccc(CC(=O)N2CCN(Cc3ccccc3)CC2)cc1 here?
A: inactive: -16.2%

Q: With CC(C)[C@H]1CC2C3CC=C4C[C@@H](O)CC[C@]4(C)C3CC[C@]2(C)[C@H]1O (stereo not given in full) as the molecule, how does the Potency read?
A: inconclusive [inhibitor, single point]

Q: For c1ccc(C[C@@H](c2ccccc2)N2CCCCC2)cc1, which Potency is on record?
A: inconclusive [inhibitor, partial curve, poor fit]

Q: With CCC(C)C(=O)O[C@@H]1C[C@@]2(C)C(c3ccoc3)OC(=O)CC23OC2(C)O[C@@]14[C@@]1(C)C(CC(=O)OC)C5(C)CC1(O)C(O)(C5OC(=O)C1(C)OC1C)C(OC(C)=O)[C@@]34O2 (stereo not given in full) as the molecule, how does the Potency read?
A: inconclusive [inhibitor, single point]

Q: For O=C(COc1ccccc1Cl)N1CCN(CCc2ccccn2)CC1, which “activity change, negative = growth inhibition” value is on record?
A: inactive: -5.38%

Q: With CCc1ccc(NP(=O)(Oc2ccccc2F)Oc2ccccc2F)cc1 as the molecule, how does the Potency read?
A: inconclusive [inhibitor, single point]

Q: Which Potency does the source give for Cc1ccc(-n2c(=S)[nH]c3ccccc3c2=O)cc1F here?
A: inconclusive [inhibitor, partial curve]

Q: For CCOc1cccc(OCC)c2c(C)[n+](CC3CCCO3)c(C)c1-2 (stereo not given), which Potency is on record?
A: inconclusive [inhibitor, single point]

Q: For CC12CC[C@H]3[C@@H](CCC4(O)C[C@H](O)CCC34/C=N/NC(=O)c3ccc(O)cc3)C1(O)CCC2C1=CC(=O)OC1 (stereo not given in full), which “activity change, negative = growth inhibition” value is on record?
A: inactive: 1.19%

Q: For O=C1NC(=O)C(CCOc2ccccc2)(CCc2ccccc2)C(=O)N1, which Potency is on record?
A: inconclusive [inhibitor, partial curve]

Q: For O=P(N1CC1)(N1CC1)N1CCc2ccccc21, which Potency is on record?
A: active: 8.2 µM

Q: With C[C@H]1C[C@H]2[C@@H]3CCC4=CC(=O)C=C[C@]4(C)[C@@]3(F)[C@@H](O)C[C@]2(C)[C@@]1(O)C(=O)CCl as the molecule, how does the Potency read?
A: active: 0.0531 µM

Q: For Clc1ccc2c(c1)C(c1ccccc1)=NCc1nncn1-2, which “activity change, negative = growth inhibition” value is on record?
A: inactive: -27%

Q: Which Potency does the source give for O=C1CC(N2CC=C(c3ccc(F)cc3)CC2)C(=O)N1c1ccc(F)cc1 (stereo not given) here?
A: inconclusive [inhibitor, single point]

Q: With CCN(CC)C(=O)c1ccc(NC(=O)c2ccc3c(c2)NC(=O)CS3)cc1 as the molecule, how does the “activity change, negative = growth inhibition” value read?
A: inactive: -1.04%

Q: Which Potency does the source give for O=C(NCCc1ccc(Cl)cc1)c1ccc(Nc2nc3ccccc3n3nnnc23)cc1 here?
A: active: 10.3 µM

Q: For CC(=O)c1ccc2c(c1)C1C(Cl)C(Sc3ccccc3[N+](=O)[O-])CC1C(C(=O)O)N2 (stereo not given), which Potency is on record?
A: inconclusive [inhibitor, partial curve]

Q: For CC1CCC(C(C)C)C(OC(=O)COC(=O)c2ccccc2N)C1 (stereo not given), which Potency is on record?
A: inconclusive [inhibitor, partial curve]

Q: For CN(C)c1ccc(-[n+]2c(-c3ccccc3)cc(-c3ccccc3)cc2-c2ccccc2)cc1, which Potency is on record?
A: active: 0.411 µM

Q: With COc1ccc(N2CCN(C(=O)c3cc(=O)[nH]c4ccccc34)CC2)cc1 as the molecule, how does the Potency read?
A: inconclusive [inhibitor, single point]

Q: For CN(C)C(=O)Oc1ccc(OCc2nc3ccccc3[nH]2)cc1, which Potency is on record?
A: active: 10.3 µM

Q: With CCOc1ccc(CNC(=O)CSc2c3c(nc4cc(Cl)ccc24)CCCC3)cc1 as the molecule, how does the Potency read?
A: inconclusive [inhibitor, single point]
